# Results from the supplement of paper PMC7125110.
# ± gives the standard error. Variants at the floor of the assay are shown more often than the library holds them.
# B1: glmS ribozyme (parent)
# chain: AUAAAAGCGCCAGAACUACAGAAAUGUAGUUGACGAGGAGGAGGUUUAUCGAAUUUUCGGCGGAUGCCUCCAAA
# Variants of: B1
# Test: self-cleavage kobs at 10000 uM GlcN6P; higher = faster cleavage; RNA array
# Settings: with glucosamine-6-phosphate
# How it was run: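 Barcoded ribozyme variants on sequenced MiSeq chips were transcribed in situ by E. coli RNA polymerase and followed at 37 °C through a hybridised Cy3 probe. Glucosamine-6-phosphate at 40 μM to 10 mM in HEPES/KCl/Mg(OAc)2 buffer was flowed in, and tiles were imaged over ~14 h. Signals were normalised to baseline and to non-cleaving reference variants, and per-tile medians were fit to one- or two-exponential decays to give kobs. Weighted Michaelis–Menten fits across concentrations gave kcat and KM.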
row,Variant,self-cleavage kobs at 10000 uM GlcN6P [s⁻¹]
1,C34A G44U U46G C68A,< 1e-05
2,G37A U46G G59C,< 1e-05
3,C10G A14C G63U,< 1e-05
4,C8U G13A A15U G41A,< 1e-05
5,G38C A39U G41A,< 1e-05
6,A15G U31A A36G C58U,< 1e-05
7,C19A G35C U47C U49G G51U C68U C71U,< 1e-05
8,G29U A48U U49G,< 1e-05
9,C8A G37C A39G C58A G60C,< 1e-05
10,A12U A42G C58G,0.00079 ± 0.00015
11,G9A G29U G37C,< 1e-05
12,A14G A64G C68G,< 1e-05
13,G9A U30C G35U U55G,< 1e-05
14,C11A G13U A53G C67U C68G,3.78e-05 ± 1.7e-05
15,G32A G37C G41U,< 1e-05
16,G37C U57G G62U A64C,< 1e-05
17,U30G A39C U56A C70G,< 1e-05
18,C8G G51U U69G,0.00122 ± 0.00049
19,G29C A64C C71U,< 1e-05
20,A12G U55C U69A,< 1e-05
21,A15G G37C G38U U46A,< 1e-05
22,A14U U30G U31C,0.000695 ± 0.00016
23,C8G A14C C68G,< 1e-05
24,G9A A14C G62U C71U,< 1e-05

row,Variant,self-cleavage kobs at 10000 uM GlcN6P [s⁻¹]
1,A15U G44U C61A,< 1e-05
2,U30C U45G A48G C71G,< 1e-05
3,U31A G32U G41U C68U C71U,< 1e-05
4,C8U G9C G29A C50U,< 1e-05
5,G9U U30C G35U G60U A64U,< 1e-05
6,A33G C34U C50G C67U,0.000194 ± 3.6e-05
7,A33G C50A,< 1e-05
8,G32U G38C U47C A52U,< 1e-05
9,G9A G32U G35U,< 1e-05
10,C11U G43U C58U G62U G63U,< 1e-05
11,C10G G37U A64G,< 1e-05
12,C8A A14U A39C,< 1e-05
13,C16A G35U G60U,< 1e-05
14,A14G C50G C70U,9.53e-05 ± 1.4e-05
15,G13C U55G C58G,4.29e-05 ± 1.4e-05
16,A33G A52G,< 1e-05
17,A36G G40A G51U G62C G66C,< 1e-05
18,G35A A52C A53C,< 1e-05
19,A15U G38U U57C C61U,< 1e-05
20,G32U A53G C67G,0.000238 ± 3.8e-05
21,C8U G13A U57G,< 1e-05
22,C10U U55C G62U,< 1e-05
23,G9A G37U A64C,< 1e-05
24,G9U G38A A39G C67U,< 1e-05

row,Variant,self-cleavage kobs at 10000 uM GlcN6P [s⁻¹]
1,G9U C10G U45A,< 1e-05
2,G29C A33U G38U C68A,< 1e-05
3,A12G U49A C58G G66A,< 1e-05
4,C11G A53C C70A,< 1e-05
5,C11G A14U G37U A39G G43U A52G,< 1e-05
6,A12G U49A G66U C71G,< 1e-05
7,U30G G38A U46G C50A G59C C71U,< 1e-05
8,A33C G41U A64G,< 1e-05
9,C10A G38A U45G,< 1e-05
10,A12G A14C C50G C71A,0.000133 ± 3.2e-05
11,A15C U54A G59U,< 1e-05
12,A33G U56A C67A,< 1e-05
13,C10G A15C C68U C71U,< 1e-05
14,C10G G40U U46C C71U,< 1e-05
15,A12U G41A U54C,0.000963 ± 0.00021
16,C10U A52U G66C,< 1e-05
17,A15C G41A A48G U49G,< 1e-05
18,A33G G41U G43U A53G U57A C71A,< 1e-05
19,C11G G44C U65C C67G C70U,< 1e-05
20,C8U G13A U31G A42C U45G C67G,< 1e-05
21,A36U U45A C61G G62C U69G,< 1e-05
22,C34A A39G C61U A64G,< 1e-05
23,C8A G40A C50U,< 1e-05
24,C10A U57G G60U,< 1e-05

row,Variant,self-cleavage kobs at 10000 uM GlcN6P [s⁻¹]
1,C10U G41U U47A C58A,< 1e-05
2,A14C G38U A53U,< 1e-05
3,A36U G38C G40A,< 1e-05
4,A12C G35U A48C C50A C67G,< 1e-05
5,C10A A15G A33U A42C,< 1e-05
6,C10U A36C G44A,< 1e-05
7,G37U C71A,< 1e-05
8,A23G U46G G59C,< 1e-05
9,C10U C11A A53G,< 1e-05
10,G13A U46G A48U A52C G63C,< 1e-05
11,A12U G51C C67U,< 1e-05
12,G37U C70A,< 1e-05
13,C10G U54G C58G,< 1e-05
14,G37A G60C,< 1e-05
15,A36C G37C A42U G51U,< 1e-05
16,C34A G35A A39G A42G G51A,< 1e-05
17,C8U C50U G59U,< 1e-05
18,C11U U46C A48U,< 1e-05
19,U30C U31A G40U U56C C61A C71A,< 1e-05
20,A12G G51C G60U,< 1e-05
21,G37C G51C C58U G62U,< 1e-05
22,G32U C34A G37U,< 1e-05
23,C34A G35A U56A G63C,< 1e-05
24,G32U G35C U46A,< 1e-05

row,Variant,self-cleavage kobs at 10000 uM GlcN6P [s⁻¹]
1,A33U A53U G59U,< 1e-05
2,A12U G35A A48U G62A C70G,< 1e-05
3,C8U G38U G43U,< 1e-05
4,A15U C34U C71A,< 1e-05
5,G13U U49A G62U A64C C71G,< 1e-05
6,A15G G29C G44U U69G,< 1e-05
7,G9A A33C G37U G41A C68U,< 1e-05
8,C10G A39U U56C,< 1e-05
9,A12C U31G A48U C58G,< 1e-05
10,G13U U47A A48U U54C C58A,< 1e-05
11,C16A G38A A48C,< 1e-05
12,A14G A15C A52U A64C C68A,< 1e-05
13,C8A A36G U57C,< 1e-05
14,C10A C11U G35U A53U,< 1e-05
15,C16U G63U,< 1e-05
16,A15U U30G A48U A53G,0.000112 ± 3.6e-05
17,C34U G44U U54A G63C,< 1e-05
18,A12U A14G U57A,0.000643 ± 0.00011
19,C11U G29U G40U G62U,< 1e-05
20,G32U C50A,< 1e-05
21,A12G G35C A42C C58U G59A G62U C70G,< 1e-05
22,A36C G38C A42C,< 1e-05
23,G29C A36C G63A,< 1e-05
24,A15C U30A A36U,< 1e-05

row,Variant,self-cleavage kobs at 10000 uM GlcN6P [s⁻¹]
1,U31G G40C G43A,< 1e-05
2,U30C G40A U56A G62C,< 1e-05
3,A12G G51U A53G,< 1e-05
4,A14C G40C G63A C68U C70A,< 1e-05
5,A15U G37C G60U,< 1e-05
6,A15C G63A C70U,< 1e-05
7,A15U G62C C70A,< 1e-05
8,C8G G41U G66U C70G,< 1e-05
9,G29C U45A C58G G62A,< 1e-05
10,A12U G40A G51C,< 1e-05
11,U30A G59U C71A,< 1e-05
12,G37C A48G U49A,< 1e-05
13,U30C G51A,< 1e-05
14,C8G G43C C50U,< 1e-05
15,C8G A14C C67G,< 1e-05
16,C10G G63A C67U,< 1e-05
17,G32U G43U U69C,< 1e-05
18,G37A G60U G66A C70U,< 1e-05
19,G13A C16U G32U,0.000302 ± 4.9e-05
20,C34A G44C G66U C71G,< 1e-05
21,A14G U30G U47C,0.00168 ± 0.00041
22,C10U A15C G32C A33U C61A G63C U65C,< 1e-05
23,A36G U46A A52U C67G,< 1e-05
24,C11U U31G U54A,0.0029 ± 0.0008

row,Variant,self-cleavage kobs at 10000 uM GlcN6P [s⁻¹]
1,A33G A42C U47C G60A,< 1e-05
2,C8U U31A G32C U45C,< 1e-05
3,C11U G43U G63C A64U,< 1e-05
4,C10U G62A C70U C71G,< 1e-05
5,G32U G40C A42C G62A C70U,< 1e-05
6,C11G A15G G29U G43U U47G G59C,< 1e-05
7,G32C U47A A48C U57G C61G,< 1e-05
8,C8A A14C U49A,< 1e-05
9,A14C G35A U54G G59A G63C,< 1e-05
10,A33U G41C A52U A53C,< 1e-05
11,G13U G38C C58U C61U,< 1e-05
12,C8U C34A G51U U55G,< 1e-05
13,G35C U46G C70U,< 1e-05
14,C8G A14G A33U,< 1e-05
15,A15U G44U,3.08e-05 ± 1.4e-05
16,C10G A39C G41A A48C,< 1e-05
17,G13C A42C C50U,< 1e-05
18,U31C U47G C70G,4.82e-05 ± 1.5e-05
19,C8G U49A A53G U65C C68U,< 1e-05
20,G37C C70A,< 1e-05
21,G13C G32C C61A C68G C70G,< 1e-05
22,C10A C16G G41C,< 1e-05
23,C10U A12U U31C U46C,< 1e-05
